Laboratory results taken from article PMC4976356, “Structural insight into β-Clamp and its interaction with DNA Ligase in Helicobacter pylori” (Scientific Reports, 2016).

Biological target: Hpβ-clamp (Helicobacter pylori, UniProt O25242)
Experiment: SPR interaction with immobilized Hpβ-clamp (Autolab SPR)
Conditions: peptide 100 μM to 1.7 mM, 10 mM HEPES pH 7.4, 150 mM NaCl, 3 mM EDTA, 0.05% NP-40, 25 °C

## 953QGGNSLF959 [peptide from alpha]
  binding affinity range (in words), peptide from alpha subunit of DNA Pol III: millimolar range
